{"source": "PubChem BioAssay (Tox21)", "key": {"[1]": {"assay": "qHTS assay to identify small molecule agonists of the estrogen receptor beta (ER-beta) signaling pathway - cell viability counter screen (AID 1259380); further: nearly all actives have a fitted effect of over 30% in size; further: potency means the concentration at half of the fitted maximal effect; on activity change, negative = cytotoxicity: on the % scale 0 is the no-effect control and ±100 the full control effect", "outline": "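HEK293T ER-beta-UAS-bla; 2% CS-FBS; 6 hr pre-plate, 16 hr cpd at 37C/5% CO2; LiveBLAzer read first, then CellTiter-Glo 30 min RT, luminescence.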"}, "[2]": {"molecular_target": "Estrogen receptor (Homo sapiens) (UniProt P03372)", "sequence (P03372 whole entry, looked up)": "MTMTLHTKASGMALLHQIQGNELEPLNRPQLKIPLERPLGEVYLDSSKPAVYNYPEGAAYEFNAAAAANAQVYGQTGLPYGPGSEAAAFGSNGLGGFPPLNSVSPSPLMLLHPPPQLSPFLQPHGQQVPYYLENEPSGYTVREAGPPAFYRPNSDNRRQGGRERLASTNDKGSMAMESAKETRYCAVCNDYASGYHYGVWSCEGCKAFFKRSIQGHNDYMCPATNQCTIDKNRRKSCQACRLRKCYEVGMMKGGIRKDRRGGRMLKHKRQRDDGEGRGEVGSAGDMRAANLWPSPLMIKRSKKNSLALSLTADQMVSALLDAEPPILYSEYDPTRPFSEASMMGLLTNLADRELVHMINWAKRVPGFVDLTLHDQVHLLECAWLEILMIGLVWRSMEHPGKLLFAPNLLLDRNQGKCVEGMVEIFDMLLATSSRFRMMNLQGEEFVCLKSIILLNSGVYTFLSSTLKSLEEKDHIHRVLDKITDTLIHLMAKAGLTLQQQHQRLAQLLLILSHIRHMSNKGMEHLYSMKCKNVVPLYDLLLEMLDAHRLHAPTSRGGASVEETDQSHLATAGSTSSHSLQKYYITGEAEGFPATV", "assay": "qHTS assay to identify small molecule agonists of the estrogen receptor alpha (ER-alpha) signaling pathway in the presence of an antagonist (AID 1259383; calls by dose curve; further: potency means the concentration at half of the fitted maximal effect; nearly all actives have a fitted effect of over 15% in size)", "outline": "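VM7Luc4E2, endog. ER-alpha + 4×ERE-luc; charcoal-stripped FBS, phenol red-free, 5 d; 24hr plating; +10.0nM ICI-182,780 (final); cpds 15 conc, 22hr, 37C/5% CO2; ONE-Glo luminescence.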"}, "[3]": {"molecular_target": "Progesterone receptor (Homo sapiens) (UniProt P06401)", "sequence (P06401 whole entry, looked up)": "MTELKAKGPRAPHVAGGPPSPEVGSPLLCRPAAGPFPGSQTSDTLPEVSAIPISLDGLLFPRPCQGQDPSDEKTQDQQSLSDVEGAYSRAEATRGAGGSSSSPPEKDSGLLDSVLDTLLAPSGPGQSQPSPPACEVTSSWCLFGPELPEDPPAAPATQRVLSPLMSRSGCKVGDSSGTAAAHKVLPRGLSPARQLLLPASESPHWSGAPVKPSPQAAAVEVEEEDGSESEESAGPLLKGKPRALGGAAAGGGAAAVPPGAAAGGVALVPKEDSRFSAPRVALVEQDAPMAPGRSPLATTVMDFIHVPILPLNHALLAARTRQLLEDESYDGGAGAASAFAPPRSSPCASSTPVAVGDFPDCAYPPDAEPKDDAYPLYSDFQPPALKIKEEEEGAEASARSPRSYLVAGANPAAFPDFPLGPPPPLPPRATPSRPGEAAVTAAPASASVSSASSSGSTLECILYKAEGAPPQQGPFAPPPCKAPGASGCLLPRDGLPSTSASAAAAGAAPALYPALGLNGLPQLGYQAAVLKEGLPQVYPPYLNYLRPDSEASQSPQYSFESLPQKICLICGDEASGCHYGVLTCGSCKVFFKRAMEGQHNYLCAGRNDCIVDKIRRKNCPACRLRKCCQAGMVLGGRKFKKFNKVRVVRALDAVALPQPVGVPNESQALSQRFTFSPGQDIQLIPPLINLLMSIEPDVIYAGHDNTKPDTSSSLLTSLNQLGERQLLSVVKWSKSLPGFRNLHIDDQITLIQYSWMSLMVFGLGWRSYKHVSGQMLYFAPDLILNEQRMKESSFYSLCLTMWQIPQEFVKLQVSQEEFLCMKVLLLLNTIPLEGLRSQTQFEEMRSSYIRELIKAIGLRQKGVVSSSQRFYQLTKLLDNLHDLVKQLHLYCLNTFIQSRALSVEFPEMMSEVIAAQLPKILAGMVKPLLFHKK", "assay": "qHTS assay to identify small molecule antagonists of the progesterone receptor (PR) signaling pathway (AID 1346795; active means well fitted inhibition curve with a large enough effect in the signal ratio in the repeat runs, not every such curve was filed as active; inconclusive means weak or mixed curves; the % refers to the signal ratio; further: potency means the concentration at half of the fitted maximal effect; on activity change, negative = inhibition: on the % scale 0 is the no-effect control and ±100 the full control effect)", "details": "PR-UAS-bla HEK293T, beta-lactamase FRET ratio, 16 h", "outline": "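Fluorescence intensity measured 2 hr after adding beta-lactamase FRET substrate to PR-UAS-bla HEK293T cells that had been co-treated 16 hr with compound and 1 nM R5020 (final concentration) in 2% charcoal-stripped FBS.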"}, "[4]": {"assay": "qHTS assay to identify small molecule agonists of the progesterone receptor (PR) signaling pathway - cell viability counter screen (AID 1346799; calls by dose curve; further: nearly all actives have a fitted effect of over 45% in size; further: potency means the concentration at half of the fitted maximal effect; on activity change, negative = cytotoxicity: on the % scale 0 is the no-effect control and ±100 the full control effect)", "outline": "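In parallel with the beta-lactamase readout, cytotoxicity toward PR-UAS-bla HEK293T cells was measured by CellTiter-Glo luminescence following 16 hr compound incubation in 2% charcoal-stripped FBS medium.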"}, "[5]": {"assay": "qHTS assay to identify small molecule antagonists of the progesterone receptor (PR) signaling pathway - cell viability counter screen (AID 1346798); further: nearly all actives have a fitted effect of over 50% in size; further: potency means the concentration at half of the fitted maximal effect", "outline": "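CellTiter-Glo luminescence; PR-UAS-bla HEK293T, 3,000 cells/well; compound + R5020, 16 hr, 37C/5% CO2; 30 min RT before read.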"}, "[6]": {"assay": "qHTS assay to identify small molecule agonists of the TGF-beta/Smad signaling pathway - cell viability counter screen (AID 1346829); further: nearly all actives have a fitted effect of over 45% in size; further: potency means the concentration at half of the fitted maximal effect", "outline": "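In parallel with the Smad reporter read, viability of HEK 293T cells stably carrying SBE-bla is quantified by ATP luminescence following 5 hr compound treatment.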"}, "[7]": {"molecular_target": "Androgen receptor (Homo sapiens) (UniProt P10275)", "sequence (P10275 whole entry, looked up)": "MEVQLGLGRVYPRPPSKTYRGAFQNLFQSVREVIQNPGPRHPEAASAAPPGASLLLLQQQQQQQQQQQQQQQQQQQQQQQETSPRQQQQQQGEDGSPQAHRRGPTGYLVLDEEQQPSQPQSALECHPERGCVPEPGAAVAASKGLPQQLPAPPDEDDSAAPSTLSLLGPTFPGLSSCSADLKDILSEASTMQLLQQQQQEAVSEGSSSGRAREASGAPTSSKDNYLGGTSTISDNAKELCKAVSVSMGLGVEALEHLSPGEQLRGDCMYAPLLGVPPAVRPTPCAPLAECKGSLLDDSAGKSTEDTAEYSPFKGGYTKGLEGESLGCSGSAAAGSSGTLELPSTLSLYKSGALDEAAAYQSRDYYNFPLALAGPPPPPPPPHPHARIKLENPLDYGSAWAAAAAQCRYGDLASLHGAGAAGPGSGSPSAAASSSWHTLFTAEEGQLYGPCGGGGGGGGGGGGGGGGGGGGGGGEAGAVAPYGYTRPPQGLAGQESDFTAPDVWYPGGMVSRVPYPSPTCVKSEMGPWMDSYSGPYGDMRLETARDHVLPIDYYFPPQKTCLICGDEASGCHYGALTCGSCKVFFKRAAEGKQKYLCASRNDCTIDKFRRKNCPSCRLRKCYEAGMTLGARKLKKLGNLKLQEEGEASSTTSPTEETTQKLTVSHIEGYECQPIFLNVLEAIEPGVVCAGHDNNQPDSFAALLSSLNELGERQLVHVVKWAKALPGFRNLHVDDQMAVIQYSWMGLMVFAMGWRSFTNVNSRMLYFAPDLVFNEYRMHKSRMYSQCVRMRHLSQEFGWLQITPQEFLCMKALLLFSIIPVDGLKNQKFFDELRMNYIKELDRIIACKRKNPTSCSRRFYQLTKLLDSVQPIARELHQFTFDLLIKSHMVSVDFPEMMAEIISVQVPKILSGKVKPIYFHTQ", "assay": "qHTS assay to identify small molecule agonists of the androgen receptor (AR) signaling pathway in the presence of an antagonist (AID 1259381; calls by dose curve; further: potency means the concentration at half of the fitted maximal effect; nearly all actives have a fitted effect of over 15% in size)", "outline": "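MDA-kb2 cells, 3,000/well, rested 5hr at 37C/0% CO2 → nilutamide 3.0uM final or buffer → compounds, 15 conc. → 16hr at 37C → ONE-Glo, 30min RT → luminescence.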"}, "[8]": {"assay": "qHTS assay to identify small molecule antagonists of the TGF-beta/Smad signaling pathway - cell viability counter screen (AID 1346824); further: on the % scale 0 is the no-effect control and ±100 the full control effect; nearly all actives have a fitted effect of over 50% in size", "outline": "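Cytotoxicity counter-screen run in the same wells as the beta-lactamase Smad reporter read: CellTiter-Glo luminescence after 30 min at room temperature. HEK 293T SBE-bla cells had 5 hr compound exposure at 37 C with TGF-beta1 (0.25 ng/mL stock).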"}, "[9]": {"molecular_target": "Thyrotropin-releasing hormone receptor (Homo sapiens) (UniProt P34981)", "sequence (P34981 whole entry, looked up)": "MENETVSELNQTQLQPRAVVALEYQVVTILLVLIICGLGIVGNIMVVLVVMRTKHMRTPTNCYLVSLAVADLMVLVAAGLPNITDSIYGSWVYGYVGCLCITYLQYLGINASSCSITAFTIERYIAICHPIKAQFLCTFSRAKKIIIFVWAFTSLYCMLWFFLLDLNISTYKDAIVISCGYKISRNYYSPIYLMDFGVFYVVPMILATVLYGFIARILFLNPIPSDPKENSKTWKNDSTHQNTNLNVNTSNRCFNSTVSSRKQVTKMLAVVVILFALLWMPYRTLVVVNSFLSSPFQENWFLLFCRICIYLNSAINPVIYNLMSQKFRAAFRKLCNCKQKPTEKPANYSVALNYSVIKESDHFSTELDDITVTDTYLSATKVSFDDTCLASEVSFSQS", "assay": "qHTS assay to identify small molecule antagonists of the thyrotropin-releasing hormone receptor (TRHR) signaling pathway (AID 1346877; active means well fitted inhibition curve with a large enough effect in the repeat runs, not every such curve was filed as active; inconclusive means weak or mixed curves; further: on the % scale 0 is the no-effect control and ±100 the full control effect)", "outline": "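Intracellular calcium fluorescence, read kinetically every second over 3 min, reports TRH-evoked signalling in HEK293 cells carrying TRHR. Test compounds were added 5 min ahead of a 1 nM TRH challenge.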"}, "[10]": {"assay": "qHTS assay to identify small molecule antagonists of the estrogen receptor beta (ER-beta) signaling pathway - cell viability counter screen (AID 1259382); further: on the % scale 0 is the no-effect control and ±100 the full control effect; nearly all actives have a fitted effect of over 55% in size", "outline": "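Cells: ER-beta-UAS-bla HEK293T, 2,000/well, 2% CS-FBS, 6 hr settle. Cpd + E2 (1nM final), 16 hr, 37C/5% CO2. Bla FRET substrate 2 hr RT, then CellTiter-Glo 30 min RT, luminescence.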"}, "[11]": {"details": "activity change, negative = inhibition: at 92.4 µM (top of the series) unless noted"}}, "note": "Where “and” joins values, the source holds several entries; their conditions need not be identical. Identical values can stand only once. This list was built around the results that the source calls inconclusive (neither active nor inactive); the mix of calls is not that of the screen. For some of these results: Potencies beside an inconclusive call are fits to weak or partial responses and may not hold up. Some compounds were tested as several samples or in several runs, with calls that do not always agree. Calls of active or inactive are those of the source. Unless noted, the call rests on the fitted dose curve; in most records, active means well fitted curve in the direction sought with a large enough effect in the repeat runs; inconclusive means weak or mixed curves; inactive means no such curve, though single readings can be large; an effect the other way counts as inactive or inconclusive. Tags describe the fitted curve by direction and shape.", "data": [{"smiles": "CCCCOc1ccc(N)cc1", "values": [{"measurement": "Potency", "setting": "[1]", "result": "inactive"}, {"measurement": "Potency", "setting": "[2]", "result": "inconclusive: 30.6 µM [activator, partial curve, poor fit]"}, {"measurement": "Potency", "setting": "[3]; [11]", "result": "inactive"}, {"measurement": "Potency", "setting": "[4]", "result": "inactive"}]}, {"smiles": "O=C(c1ccccc1)c1ccccc1", "values": [{"measurement": "Potency", "setting": "[1]", "result": "inconclusive: 77 µM [rising, partial curve, poor fit]"}, {"measurement": "activity change, negative = inhibition", "setting": "[3]; [11]", "result": "inconclusive: -1.95%"}, {"measurement": "activity change, negative = inhibition", "setting": "[3]; at 42.5 µM (top of the series)", "result": "inactive: 7.01%"}, {"measurement": "activity change, negative = inhibition", "setting": "[3]; at 92.4 µM (top of the series)", "result": "inactive: -8.39%"}, {"measurement": "Potency", "setting": "[5]", "result": "inconclusive: 70.6 µM [rising, partial curve, poor fit]"}]}, {"smiles": "C1=CCC(c2ccccc2)CC1", "note": "(configuration not stated)", "values": [{"measurement": "Potency", "setting": "[1]", "result": "inactive"}, {"measurement": "Potency", "setting": "[5]", "result": "inactive"}]}, {"smiles": "C=CS(=O)(=O)O", "values": [{"measurement": "Potency", "setting": "[1]", "result": "inactive"}, {"measurement": "Potency", "setting": "[4]", "result": "inactive"}]}, {"smiles": "CCN(CCO)CCCC(C)Nc1ccnc2cc(Cl)ccc12", "note": "(configuration not stated)", "values": [{"measurement": "activity change, negative = cytotoxicity", "setting": "[1]", "result": "inactive: 3.81% [at 8.39 µM]"}, {"measurement": "activity change, negative = cytotoxicity", "setting": "[6]", "result": "inactive: 2.66% [at 6.97 µM]"}]}, {"smiles": "Cc1cccc(OCC(O)CNC(C)(C)C)c1C", "note": "(configuration not stated)", "values": [{"measurement": "Potency", "setting": "[1]", "result": "active: 13.3 µM"}, {"measurement": "Potency", "setting": "[5]", "result": "inconclusive: 0.119 µM [cytotoxic, single point]"}]}, {"smiles": "FC(F)(F)C(Cl)Br", "note": "(configuration not stated)", "values": [{"measurement": "Potency", "setting": "[1]", "result": "inactive"}, {"measurement": "Potency", "setting": "[3]; [11]", "result": "inactive"}, {"measurement": "Potency", "setting": "[6]", "result": "inconclusive: 60.4 µM [rising, single point]"}]}, {"smiles": "COc1ccc2c(c1)c1c3n2CCN(C)C3=NCC1", "values": [{"measurement": "Potency", "setting": "[1]", "result": "inactive"}, {"measurement": "Potency", "setting": "[5]", "result": "inactive"}]}, {"smiles": "C=CC(=O)OCC[N+](C)(C)C", "values": [{"measurement": "Potency", "setting": "[1]", "result": "inactive"}, {"measurement": "Potency", "setting": "[4]", "result": "inactive"}]}, {"smiles": "CCCCCCCCCCC", "values": [{"measurement": "Potency", "setting": "[1]", "result": "inconclusive: 68.6 µM [cytotoxic, single point]"}, {"measurement": "Potency", "setting": "[5]", "result": "inconclusive: 68.6 µM [cytotoxic, partial curve, poor fit]"}, {"measurement": "Potency", "setting": "[4]", "result": "inconclusive: 19.3 µM [cytotoxic, partial curve, poor fit]"}]}, {"smiles": "CCCCOCCOCCOCCOCCO", "values": [{"measurement": "Potency", "setting": "[1]", "result": "inconclusive: 77 µM [cytotoxic, single point]"}, {"measurement": "Potency", "setting": "[3]; [11]", "result": "inconclusive: 43.3 µM [rising, partial curve, poor fit]"}, {"measurement": "Potency", "setting": "[5]", "result": "inconclusive: 21.7 µM [cytotoxic, full curve]"}, {"measurement": "Potency", "setting": "[4]", "result": "inconclusive: 17.2 µM [cytotoxic, full curve]"}]}, {"smiles": "Cc1ccc(Cl)c(OCC(O)CNC(C)(C)C)c1", "note": "(configuration not stated)", "values": [{"measurement": "Potency", "setting": "[1]", "result": "inconclusive: 29.8 µM [cytotoxic, single point]"}, {"measurement": "Potency", "setting": "[6]", "result": "inactive"}]}, {"smiles": "CC(=O)N(CC(=O)N(C)C)c1ccccc1", "values": [{"measurement": "Potency", "setting": "[7]", "result": "inconclusive: 33.5 µM [rising, single point]"}, {"measurement": "Potency", "setting": "[5]", "result": "inactive"}]}, {"smiles": "COc1ccnc2c1CCCCC2S(=O)c1nc2ccccc2[nH]1", "note": "(configuration not stated)", "values": [{"measurement": "Potency", "setting": "[1]", "result": "inconclusive: 10.6 µM [cytotoxic, full curve, poor fit]"}, {"measurement": "Potency", "setting": "[8]", "result": "inactive"}]}, {"smiles": "C1CCCNCCC1", "values": [{"measurement": "Potency", "setting": "[1]", "result": "inactive"}, {"measurement": "Potency", "setting": "[5]", "result": "inactive"}]}, {"smiles": "Cn1c(=O)c2[nH]cnc2n(C)c1=O", "values": [{"measurement": "Potency", "setting": "[1]", "result": "inconclusive: 78 µM [rising, single point]"}, {"measurement": "activity change, negative = inhibition", "setting": "[3]; [11]", "result": "inconclusive: 3.62%"}, {"measurement": "Potency", "setting": "[4]", "result": "inconclusive: 39.1 µM [cytotoxic, full curve, poor fit] and inactive and inconclusive: 6.68 µM [cytotoxic, full curve, poor fit]"}]}, {"smiles": "CCN(CC)CCNC(C(=O)OCCC(C)C)c1ccccc1", "note": "(configuration not stated)", "values": [{"measurement": "Potency", "setting": "[1]", "result": "inconclusive: 33.5 µM [cytotoxic, partial curve, poor fit]"}, {"measurement": "Potency", "setting": "[4]", "result": "inconclusive: 4.73 µM [cytotoxic, partial curve, poor fit]"}]}, {"smiles": "OCC1CC2CC1C1CCC(CO)C21", "note": "(configuration not stated)", "values": [{"measurement": "Potency", "setting": "[1]", "result": "inconclusive: 48.6 µM [cytotoxic, partial curve]"}, {"measurement": "activity change, negative = inhibition", "setting": "[3]; [11]", "result": "inconclusive: -35.6%"}, {"measurement": "Potency", "setting": "[5]", "result": "active: 27.3 µM"}, {"measurement": "Potency", "setting": "[4]", "result": "inconclusive: 24.3 µM [cytotoxic, full curve]"}]}, {"smiles": "CCCCC1CCC(=O)O1", "note": "(configuration not stated)", "values": [{"measurement": "Potency", "setting": "[1]", "result": "inactive"}, {"measurement": "Potency", "setting": "[3]; [11]", "result": "inactive"}, {"measurement": "Potency", "setting": "[5]", "result": "inactive"}, {"measurement": "Potency", "setting": "[4]", "result": "inactive"}]}, {"smiles": "CCCNC(C)(C)COC(=O)c1ccccc1", "values": [{"measurement": "Potency", "setting": "[1]", "result": "inactive"}, {"measurement": "Potency", "setting": "[5]", "result": "inactive"}]}, {"smiles": "CC(=O)C(=O)O", "values": [{"measurement": "Potency", "setting": "[1]", "result": "inconclusive: 69.5 µM [rising, single point]"}, {"measurement": "Potency", "setting": "[4]", "result": "active: 34.4 µM"}]}, {"smiles": "CC(=O)c1sc(C)nc1C", "values": [{"measurement": "Potency", "setting": "[1]", "result": "inactive"}, {"measurement": "Potency", "setting": "[5]", "result": "inactive"}, {"measurement": "Potency", "setting": "[9]", "result": "inactive"}]}, {"smiles": "Cc1ccc(C(=O)C(=O)O)cc1C", "values": [{"measurement": "Potency", "setting": "[10]", "result": "inactive"}]}, {"smiles": "C1=COCCC1", "values": [{"measurement": "Potency", "setting": "[1]", "result": "inconclusive: 21.7 µM [rising, full curve]"}, {"measurement": "Potency", "setting": "[4]", "result": "inconclusive: 15.4 µM [cytotoxic, single point]"}]}, {"smiles": "C/C=C/c1ccc(OC)cc1", "values": [{"measurement": "Potency", "setting": "[1]", "result": "inconclusive: 27.3 µM [cytotoxic, single point] and inconclusive: 33.5 µM [cytotoxic, single point]"}, {"measurement": "Potency", "setting": "[4]", "result": "inactive"}]}, {"smiles": "Clc1ccccc1CN1CCc2sccc2C1", "values": [{"measurement": "Potency", "setting": "[1]", "result": "inconclusive: 37.6 µM [cytotoxic, single point]"}, {"measurement": "Potency", "setting": "[5]", "result": "inactive"}]}, {"smiles": "CCCCCCCCOC(=O)CCCCCCCCC(=O)OCCCCCCCC", "values": [{"measurement": "Potency", "setting": "[10]", "result": "inactive"}]}]}
